# Laboratory results reported in paper PMC12136788.
# The list shows a part of the results.
# T1: UNK ZnF1-3 (human, UniProt Q9C0B0 31-174)
# T1 sequence: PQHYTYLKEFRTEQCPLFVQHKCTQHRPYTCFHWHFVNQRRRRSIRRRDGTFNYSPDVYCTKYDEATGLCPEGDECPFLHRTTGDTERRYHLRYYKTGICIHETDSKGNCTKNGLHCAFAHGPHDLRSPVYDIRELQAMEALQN
# B1: chr9:83676842:83676843:-_ENSMUSG00000032262_ENSMUST00000034796|mus_mus|FALSE|FALSE (ssRNA)
# RNA: GGGAGUUCUACAGUCCGACGAUCGAUCCAGGGGCCGAACGCAGUCAGCCCAUAGUAGGAGUACAUGAUCACGUGGAUGAAAGAGUUCAUCUGGGCCCCGAAAAACGCUUGGCCUCCAGCCACCCACUUGAUUCCAAUCCACCACAACAGAGGAUUGAGCAUCA
# B2: chr11:87793471:87793472:-_ENSMUSG00000020483_ENSMUST00000020775|mus_mus|mus_mus_mus_hu_False|8_8 (ssRNA)
# RNA: GGGAGUUCUACAGUCCGACGAUCUGGACUUGAAAAUAAAAGAAUAAGCUGGAUCCCCCACCCCCCCACAUUGUCAACCCUACACGAGAGUUUUGAAGGCGACUCAUGAAAAUCAGCAGCUCAAACGAAUGACAACCCCCCACCCAACAGAGGAUUGAGCAUCA
# B3: chr11:77336104:77336105:-_ENSG00000074201_ENST00000525064|hu_mus|hu_hu_hu_mus_False|1_88 (ssRNA)
# RNA: GGGAGUUCUACAGUCCGACGAUCCUCACACAUUGCUGUGAACAUCGCCUCCAACGCUGACUUAUCACUGGGCACAAAUCGAAAUUCAGAAAUGGGUUCAACAUCAUCAUUGUCUUCCUCAUCUUCAUCAGAGAGAGCAGGUUCCAACAGAGGAUUGAGCAUCA
# B4: chr14:89307221:89307222:+_ENSG00000165533_ENST00000346301|hu_mus|hu_hu_hu_mus_False|38_38 (ssRNA)
# RNA: GGGAGUUCUACAGUCCGACGAUCUCCUGUUUGGUUAGUGCCAGGGAGCUUCAAAGAUGUGCCAGGGCGUGGGACCUGAGCAAUAGCAUUUUCAUCCAGCAUCAUUUCAGCAAUUCCUUCCUGGUCCACAUCAAUUUCAUCUAUCAACAGAGGAUUGAGCAUCA
# B5: chr19:29217640:29217641:+_ENSMUSG00000024785_ENSMUST00000064393|mus_hu|motif|central (ssRNA)
# RNA: GGGAGUUCUACAGUCCGACGAUCCUUGGUUUCAAUUUUAAACAUAAUCUGGAAAAAGCUCUUCAAAUGCCGCAAAAAUUCGGUCGUGUAGGGAGAGAGAGGGCCUAGCAGGACUUUGGAAACAUCCUGCUGUCCAAGGGUCAUCAACAGAGGAUUGAGCAUCA
# B6: chr1:193054138:193054139:+_ENSG00000116747_ENST00000432079|hu_hu|motif|central (ssRNA)
# RNA: GGGAGUUCUACAGUCCGACGAUCUUACACUUUUUGCUCUUACCUCUUUUAGGUACACACGUAUUAUUCAACAAAGCAAAACGGUUUUACAGUGUCUGUUAACAAAAAGUUCUCUAUUAGAUAGAGGAAACUACAGUAUCCUGACAACAGAGGAUUGAGCAUCA
# B7: chr6:99998177:99998178:-_ENSG00000112237_ENST00000369220|hu_hu|motif|central (ssRNA)
# RNA: GGGAGUUCUACAGUCCGACGAUCAAGGGGAAGCAACAUGUCUUCUUGGCCCAUGUCCUGCACAUACUGGAGCAAAGGUCGGUAAGGAUGAUACACUAUCAAGCAACAAUCCAUUAGUUCUAACAGAUAGAAUUCACAUUCUAACAACAGAGGAUUGAGCAUCA
# B8: chr14:34206250:34206251:-_ENSMUSG00000021936_ENSMUST00000111945|mus_mus|FALSE|FALSE (ssRNA)
# RNA: GGGAGUUCUACAGUCCGACGAUCUGCAGUCCUCGCCAGUCCAAAAUCAAGAAUCUUCAAAGUGCAGUCUGAUUUGACUACUAUAUUACUAGGCUUUAAGUCCCGAUGAAUAAUUCCAGCAGAGUGAAGGUGCUUGAUUCCACACAACAGAGGAUUGAGCAUCA
# B9: chr5:37680062:37680063:+_ENSMUSG00000029121_ENSMUST00000031004|mus_hu|mus_mus_mus_hu_False|58_88 (ssRNA)
# RNA: GGGAGUUCUACAGUCCGACGAUCUUUGGGUGUAGCUGGUACCUCGUACACAGGCCCGUCAUACAUGCCCCUGGAAACACUAUGCAAUCCAAAAACCUUAUUCCUGAUUUUGACGCGCUGGUACAGGUGCUCCGGGAACGCCUUCAACAGAGGAUUGAGCAUCA
# B10: 66883379_66934788_389_5pUTR_ENSMUSG00000029207_ENSMUST00000159786|mouse|control|control (ssRNA)
# RNA: GGGAGUUCUACAGUCCGACGAUCCCCAAGGACUCCAGAAACAGAGAGAGGGCUAGCUGGGCGCACUUAAGUCAGCAGGUGGGAAUCAGCUCUUCACAAGAGCUUUCUUUUAUGGAUUUUCCAUCCGGCAAAGGAUUCUAUUCCCAACAGAGGAUUGAGCAUCA
# B11: chr6:24533737:24533738:+_ENSG00000112294_ENST00000357578|hu_hu|motif|central (ssRNA)
# RNA: GGGAGUUCUACAGUCCGACGAUCCAGCUGCUCUGCCACUCUCCAGAUCUGGGCUGGGUCUUGAGAGUAAAAAUAACCUGCGGACCCAACAUCAGCUGCGUUAGCGAUUGCUAUAGCCUCCUCCUCUGUAUCGAACUUGAUAACCAACAGAGGAUUGAGCAUCA
# B12: chr16:94651144:94651145:+_ENSMUSG00000040785_ENSMUST00000117648|mus_hu|mus_mus_mus_hu_True|18_68 (ssRNA)
# RNA: GGGAGUUCUACAGUCCGACGAUCAUUUUCUUGAAUCAAGUGGCGAAUAACAUAGUCCACUGCUUCAUGGACAAAAUUUCUGCUAGAAAAACAGGUUGUAUAGUCUUCUGUGCUCAAAACCUUCCAAGAAAGCAAUUCUUUGAGCAACAGAGGAUUGAGCAUCA
# B13: chr1:169100865:169100866:+_ENSG00000143153_ENST00000367816|hu_hu|motif|central (ssRNA)
# RNA: GGGAGUUCUACAGUCCGACGAUCGUGUAAAGCAUAUAGAUUAAGUGUAGGUCCCAUACGUAUGACAGUUUGUUCAAGACGGGUAGGUUUUUGUUUUUGUAUCUUUUUUUAACUUAUUAAAUGGCUAGUGGGAAAGAUUUGUGCCAACAGAGGAUUGAGCAUCA
# B14: chr19:30113593:30113594:+_ENSMUSG00000024817_ENSMUST00000025739|mus_hu|FALSE|FALSE (ssRNA)
# RNA: GGGAGUUCUACAGUCCGACGAUCGGGUUUAGCCUCAAUCUGUGUAGAUGUGCCAGGAAGAUGAUCAGGGUCUGGGCGAACUAGCAGCUGAAUUAUAUCAUUCAGUCCAACAUCAUAAUCAAAUAAGGUAUAUCCAUUUUCCAACAACAGAGGAUUGAGCAUCA
# B15: 171514793_171519311_636_CDS_ENSG00000117523_ENST00000495585|human|control|control (ssRNA)
# RNA: GGGAGUUCUACAGUCCGACGAUCCCACUUCAGUAAAACCAUCAUCAUUCAAAUUUGACUGGGGAUCUUCAAUUACUGUUACUUCAGGAUGAUCAUCAAUUAUAACAACACUUGCAUAAUUGUUGAGAUCAAACUGUGAUAGAGCAACAGAGGAUUGAGCAUCA
# B16: 96199972_96200459_2083_3pUTR_ENSMUSG00000033237_ENSMUST00000096250|mouse|control|control (ssRNA)
# RNA: GGGAGUUCUACAGUCCGACGAUCAUGCCUUGUACCGGAAAAGACAUUUGUGUUGCAGUCAAAUUUGAAGAUUGAUUGGUGACAGGAGUCCUCUGAAAAUGAUUCCCUGCAGCCUGUGGUCCAUGAGGGAUUCCUGCAGGUGAACAACAGAGGAUUGAGCAUCA
# B17: chr8:74858975:74858976:-_ENSG00000154582_ENST00000284811|hu_mus|FALSE|FALSE (ssRNA)
# RNA: GGGAGUUCUACAGUCCGACGAUCGACCUUGUAGGUAAAAUACAUGCACACUUUUGAUAGCACAUGUGAGGGGAUCUCUCUAAAAUUGACCUCGUUGGUUUCAUUCUCAGCAAACUGACCUGGACCACUCAACAUAGCCUUUAUCAACAGAGGAUUGAGCAUCA
# B18: chr12:39763582:39763583:-_ENSG00000139116_ENST00000544797|hu_mus|hu_hu_hu_mus_False|8_28 (ssRNA)
# RNA: GGGAGUUCUACAGUCCGACGAUCCUCUAGGAACUGGGCAUUCACUUUGAAUUCAGGAGGGGGCAGCCCGUUUUUAAUCGCUGAGGUCUUUUUCUCAUCAAUACUCUUAAAAAGGUGUCUAACAGCACGAGAAAUAAUGCCCUGCAACAGAGGAUUGAGCAUCA
# B19: chr1:66480114:66480115:+_ENSMUSG00000015222_ENSMUST00000024639|mus_hu|motif|central (ssRNA)
# RNA: GGGAGUUCUACAGUCCGACGAUCUGGCCUGUGGCGGAUGUUCUUCAGAGAGCCACAUUUGGAUGUCACAUGGCUUAGGUCGGUUUUCUUGGUAACAAUUUGUACCUGCCCCCCUUUAGGCUGGUAUUUGAUGUUGUCUGUUGACAACAGAGGAUUGAGCAUCA
# B20: chr2:198351390:198351391:-_ENSG00000144381_ENST00000345042|hu_hu|hu_hu_hu_mus_False|28_78 (ssRNA)
# RNA: GGGAGUUCUACAGUCCGACGAUCUCAUUCCCACCCUCCACAGAAAGGCUGCUUCUGUUCUCAUCUGUGGUGACACAGCGCUACAGUCCUGAUGCUCACAGAACAGUAGUAAAAAUGCAGUGAUUUAAGUUGAAAGCAGGACACCAACAGAGGAUUGAGCAUCA
# B21: chr4:141302222:141302223:+_ENSG00000153130_ENST00000394201|hu_mus|FALSE|FALSE (ssRNA)
# RNA: GGGAGUUCUACAGUCCGACGAUCCCUUUUGCUUUUUGUAUCAGUUGUUUGAAAAACACUAGAAGCAGACAUGAGGUUUUCUAUAUAUUGUCCGAGAACUUGAUUUUCCGACUUUAGCUUCAGAUUUUCUUCCUUAACUGCAUCCAACAGAGGAUUGAGCAUCA
# B22: chr1:220312391:220312392:+_ENSG00000067704_ENST00000302637|hu_hu|motif|central (ssRNA)
# RNA: GGGAGUUCUACAGUCCGACGAUCAUCUGUUUCUGGGUUGAAAUCAGCCACAUUUCCCAAAAGAAAGCGAAGUGUAUUCCGGAGCUUGCUAAUAUCAUCUCUGGCAGCAUUGAGCACGGAUGGGCCAAUUGCAACUUCGGUGAACAACAGAGGAUUGAGCAUCA
# Molecular target: T1, UNK ZnF1-3
# Assay: nsRBNS (natural sequence RNA bind-n-seq); RBNS binding buffer (assumed for nsRBNS): 25 mM Tris pH 7.5, 150 mM KCl, 3 mM MgCl2, 0.01% Triton X-100, 500 ug/ml BSA, 20 U/ml SUPERase-In, 4 C; UNK is unkempt and MSI1 is Musashi-1; names of the RNAs are library labels; protein concentration not given here; high values mean tight binding
row,Binder,binding signal [enrichment R]
1,B1,0.679
2,B2,2.51
3,B3,1.18
4,B4,1.07
5,B5,1.39
6,B6,0.483
7,B7,0.878
8,B8,0.856
9,B9,0.632
10,B10,0.981
11,B11,1.01
12,B12,0.627
13,B13,1.88
14,B14,1.17
15,B15,1.09
16,B16,1.19
17,B17,0.787
18,B18,1.49
19,B19,0.496
20,B20,1.34
21,B21,0.481
22,B22,1.28
